The other results are listed elsewhere or left out.
B1: chr2:198351390:198351391:-_ENSG00000144381_ENST00000345042|hu_hu|hu_hu_hu_mus_False|8_28 (ssRNA)
RNA: GGGAGUUCUACAGUCCGACGAUCUCAUUCCCACCCUCCACAGAAAGGCUGCUUCUGAACUCUCAUGUGGUGACACAGCGCUACAGUCCUGAUGCUCACAGAACAGUAGUAAAAAUGCAGUGAUUUAUUAAGUUGAAAGGACACCAACAGAGGAUUGAGCAUCA
B2: chr20:52835626:52835627:+_ENSG00000101132_ENST00000441080|hu_mus|motif|central (ssRNA)
RNA: GGGAGUUCUACAGUCCGACGAUCUGCCUCGAGGUUUAUGUUGCUGCCAAAUUUCGCGUAUAGCUGCACCUUCAGGUCGGCGGACACCCGCUGGAUGGACGCCACUCUGGACUCUAAGGCAUCAAUCUCUUCUUGCAAAGUUUUCAACAGAGGAUUGAGCAUCA
B3: chr11:102258902:102258903:+_ENSMUSG00000006575_ENSMUST00000006750|mus_mus|FALSE|FALSE (ssRNA)
RNA: GGGAGUUCUACAGUCCGACGAUCGAAAUUAACAAACUCCUCGGAAGAGUCAUCAAUGGGUUCUGCUGUGUACUUCUCUAGCAGGGUUUUCACAGAGAACCUGCACACGGUGAUCAGGUUCCUGCGCUCCACGAUCACGUUGCGCAACAGAGGAUUGAGCAUCA
B4: chr7:149068622:149068623:-_ENSMUSG00000025139_ENSMUST00000001950|mus_hu|mus_mus_mus_hu_False|18_78 (ssRNA)
RNA: GGGAGUUCUACAGUCCGACGAUCGUGAGGCCUCUGAGUGUGGCUUGUGGUCUGUCCUGUCUGCAGUUUGUUAAUAUCACGGAACAUACCAUCUAGAACGUUCCAGUCCCGCCUGACCAUCCACCCUCCAAUGGAGAAGAAAUCCAACAGAGGAUUGAGCAUCA
B5: 55647946_55649138_721_CDS_ENSG00000126787_ENST00000247191|human|control|control (ssRNA)
RNA: GGGAGUUCUACAGUCCGACGAUCUGACACUUUCUUUUCAGAAGUUUGUCUUGGACCAGGUCGGAUUGCUCGAACAUCACUCUCGUUAUCAAUCUUAGUCUGCUCCAUUUGGUCUUUGGCCUUUGACCUUGUAAUCCGUACAGACAACAGAGGAUUGAGCAUCA
B6: 59351071_59358873_1209_CDS_ENSMUSG00000025094_ENSMUST00000026084|mouse|control|control (ssRNA)
RNA: GGGAGUUCUACAGUCCGACGAUCCCCAACAACUAUCAUUCCCAGAAGAGCACACAGCCACCUUCCCAUUUUGUGUGCAAGUAUCCCAAAAAUAUUGGUUCCAAUGAGAUAAGAGAUGCUCGCUGGCAGGAAGGCAACGCCCAGCAACAGAGGAUUGAGCAUCA
B7: 63482227_63482347_13669_CDS_ENSMUSG00000030451_ENSMUST00000076226|mouse|control|control (ssRNA)
RNA: GGGAGUUCUACAGUCCGACGAUCGUAACAGUCUCUGUUGGCACCAGACUCAUCCCUGCCAUUGGGAGUCACAAUCAGAAGAGGUGUGAGUCCGUUUUGCAGCUCCUCACAAAUCUCUGCUAUAGACUCACUGUAGCCACCACCCAACAGAGGAUUGAGCAUCA
B8: chr6:86328614:86328615:-_ENSG00000135316_ENST00000355238|hu_hu|FALSE|FALSE (ssRNA)
RNA: GGGAGUUCUACAGUCCGACGAUCCUGAGCUUUUCUUUCUUUCCUUUUCUGAUCUGGUGGCUUGGCAAAAACAAUUUCAAUAUUUUCUCCCUCCAAGUCUUUGCCAUUCAUUUCUUCCAUAGCCUUGACAGCACCAUCUCGCUCCAACAGAGGAUUGAGCAUCA
B9: chr5:93602159:93602160:+_ENSMUSG00000058013_ENSMUST00000074733|mus_mus|FALSE|FALSE (ssRNA)
RNA: GGGAGUUCUACAGUCCGACGAUCGCAUGUCUUUAAAAGCUUUUAGGGAUGAGAGAAAUUGAAUGCAAAGGGGUGUUUUCUAUUCCAAGGCACAUACACACACACAAAAUAAAGCUCACACAAGCAGUGGCCGGAACAAGCAGACAACAGAGGAUUGAGCAUCA
B10: chr6:44218825:44218826:+_ENSG00000096384_ENST00000371646|hu_hu|FALSE|FALSE (ssRNA)
RNA: GGGAGUUCUACAGUCCGACGAUCGUUGUUCUUUUUCUUCUUGUUCUCAAAAAGGUCAAAGGGAGCCCGACGAGGAAUAAAUAGCAAUGCCCUGAAUUCCAACUGACCUUCUACAGAAAAGUGCUUGACUGCCAAGUGGUCUUCCAACAGAGGAUUGAGCAUCA
B11: chr8:74858975:74858976:-_ENSG00000154582_ENST00000284811|hu_mus|hu_hu_hu_mus_True|48_108 (ssRNA)
RNA: GGGAGUUCUACAGUCCGACGAUCGACCUUGUACGUAAAAUACAUGCACACUUUUGAUAGCACAUGUGAGGGGAUCUCUCUAAAAUUGACCUCAUUGGUUUCAUUCUCAGCAAACUGACCUGGACCACUCAACAUAGCCUUUAUCAACAGAGGAUUGAGCAUCA
B12: chr16:45382771:45382772:-_ENSMUSG00000022661_ENSMUST00000163230|mus_mus|mus_mus_mus_hu_True|58_108 (ssRNA)
RNA: GGGAGUUCUACAGUCCGACGAUCCUGAGUGUUAUUGUAAGACAAAUGGACAGGGAGGGCAUGCUUCUCAAAAAAUGUGAACUACUCUCUAAGACUAACAAUAUUUAUCUAGCUAUAAAAAUAAGUUAAAUGAAUAAGUUAAGACAACAGAGGAUUGAGCAUCA
B13: chr6:30688276:30688277:+_ENSG00000196230_ENST00000327892|hu_mus|motif|central (ssRNA)
RNA: GGGAGUUCUACAGUCCGACGAUCCCGAUCUGGUUGCCACACUGUCCGGCCUGGAUGUGCACGAUUUCCCUCAUGGCGGCGGUUUACUGAAAUAAUUGUUUUUGAUGGUUCCAAUGUAGGUACCGAACAAGAAAGAAAAUUAAGCAACAGAGGAUUGAGCAUCA
B14: chr17:64801638:64801639:+_ENSG00000154229_ENST00000413366|hu_mus|hu_hu_hu_mus_False|1_88 (ssRNA)
RNA: GGGAGUUCUACAGUCCGACGAUCUAUAUAUAUAUAUACAUAUGUACACAUAUGUAGUAAAACCCUAGUUAAACGUGUAAAGUAGCCAUUCAUUUUUAAAAUUACAUCUACAUUAAAAAAUUAAUAUAUCUGAUAGAGUGCCCACAACAGAGGAUUGAGCAUCA
B15: chr10:27411851:27411852:-_ENSG00000136758_ENST00000375972|hu_mus|FALSE|FALSE (ssRNA)
RNA: GGGAGUUCUACAGUCCGACGAUCCGUCUGCCUUGAAUACGGGUGCAUUGGAGAUUCAAUUCUCUUUCCACCAACAGAAUCUAAUUCAUCGAUGAAUAUAACACAAGGAGCAUUUGCUUUUGCUUCUCUAAAAAGAUUUCUGAUCAACAGAGGAUUGAGCAUCA
B16: chrX:71549400:71549401:+_ENSMUSG00000019087_ENSMUST00000019231|mus_mus|motif|central (ssRNA)
RNA: GGGAGUUCUACAGUCCGACGAUCAGUAGGAAGAGGACAAACCUUUCCAUCCACUGUGUCACAAAACAGAAACAUGACAACCGGGACACCAAUACUCCCUCAAUUCCUCUCAGGUGUAUGUCACACAAUCUGGGUCAAAGUGAUCAACAGAGGAUUGAGCAUCA
B17: chr13:59555571:59555572:-_ENSMUSG00000021557_ENSMUST00000164215|mus_mus|motif|central (ssRNA)
RNA: GGGAGUUCUACAGUCCGACGAUCAAAAGAGAAAGGAAUUGCUAAUGUCUGAUUGGUGGCAAGAGGCAUGAAGCUGUAGCGGUUAAAUGGCCCUGAGCCAGUCCUCCCAGGAGAGUGCCGAUGGCCAGGUCACUGUCAUCGCGUCAACAGAGGAUUGAGCAUCA
B18: chr14:102516957:102516958:+_ENSG00000197102_ENST00000360184|hu_hu|motif|central (ssRNA)
RNA: GGGAGUUCUACAGUCCGACGAUCAGCUCAGACCUUCCAAAUAUUUUAAAAAUGAAUAAAUGUUAAAUACCAACUUUCACGGUUACAGAAAGGGGCAGCUAGAAAAGUUUACUCUGUGCACAAGACUGCGACACCCCGCUCGUACAACAGAGGAUUGAGCAUCA
B19: chr20:37186997:37186998:+_ENSG00000170471_ENST00000397040|hu_mus|motif|central (ssRNA)
RNA: GGGAGUUCUACAGUCCGACGAUCAUCAAAAAAUCCAGGUAUGGUAGAAUCGAGUGCAAUAAGAUGAGGAGGUAGACGACGGUUUGCAGGUUCCUUUAAUGCCUCUAAGGAUAAAAAUCCAAAGUGAGAAAGGAAAAGGCGGGCCAACAGAGGAUUGAGCAUCA
B20: 5257666_5264503_1260_3pUTR_ENSG00000029725_ENST00000262477|human|control|control (ssRNA)
RNA: GGGAGUUCUACAGUCCGACGAUCCCUCUUCAUUUGAUAACUGGGCUGAAGAUUCUUCUUGAGUUAAAGCACACACUACUGGUAUUUUUAUUUCUUCCUCAACAUCUGCUUUUUUGUGAUCCUUUCUCUUAUUGAGUCUUUGUUCAACAGAGGAUUGAGCAUCA
B21: chr20:43533646:43533647:+_ENSG00000166913_ENST00000353703|hu_mus|FALSE|FALSE (ssRNA)
RNA: GGGAGUUCUACAGUCCGACGAUCGAAAUUCAGCGCCAGGCCGAGGCGAAUCGGGUGUGUAGGCUGCAUUUCUUUCUUGCUGAUUUCAAAUGCUUCUUGGUAAGCCUGCUGGGAGUUGGACACCGUGGUUUGUUUAUUUUCUCCCAACAGAGGAUUGAGCAUCA
B22: chr3:95733387:95733388:+_ENSMUSG00000015749_ENSMUST00000165307|mus_hu|motif|central (ssRNA)
RNA: GGGAGUUCUACAGUCCGACGAUCAGAUAGGUGUGGGGGAGAAAGAAGAGAAUAGCAAAUGGAGUCCAAGAGUUGGGACUCGGACUCAGCUGCCCCCACCUCCUUGUCCACACACUAGCGCGCGCACACACACGCACGCACGCGCAACAGAGGAUUGAGCAUCA

Target: T1, UNK ZnF1-3 (human, UniProt Q9C0B0 31-174)
T1 sequence: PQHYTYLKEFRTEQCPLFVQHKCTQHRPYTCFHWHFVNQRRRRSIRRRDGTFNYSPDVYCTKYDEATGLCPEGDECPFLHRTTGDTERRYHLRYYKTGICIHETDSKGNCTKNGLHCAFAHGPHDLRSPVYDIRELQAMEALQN
Assay: nsRBNS (natural sequence RNA bind-n-seq); RBNS binding buffer (assumed for nsRBNS): 25 mM Tris pH 7.5, 150 mM KCl, 3 mM MgCl2, 0.01% Triton X-100, 500 ug/ml BSA, 20 U/ml SUPERase-In, 4 C; UNK is unkempt and MSI1 is Musashi-1; names of the RNAs are library labels; protein concentration not given here; high values mean tight binding

| Binder | binding signal [enrichment R] |
| --- | --- |
| B1 | 1.59 |
| B2 | 0.883 |
| B3 | 0.409 |
| B4 | 0.888 |
| B5 | 0.674 |
| B6 | 1.07 |
| B7 | 0.885 |
| B8 | 0.632 |
| B9 | 2.45 |
| B10 | 0.931 |
| B11 | 0.89 |
| B12 | 1.43 |
| B13 | 1.4 |
| B14 | 2.17 |
| B15 | 0.867 |
| B16 | 0.988 |
| B17 | 1.14 |
| B18 | 3.19 |
| B19 | 1.47 |
| B20 | 0.427 |
| B21 | 0.604 |
| B22 | 0.528 |

From PMC12136788
